# PubChem BioAssay AID463173 (ICCB-Longwood Screening Facility, Harvard Medical School, 2010)
# Out of some 52,000 compounds screened, about 4,300 (8.3%) were called active. No stated cut-off is given here; in the data, active means survival mostly below about 52% (no sharp cut-off); inactive means mostly above about 56%. The list shows a part of the results.
# Test system: DeltatarO mutant
# Assay: S. aureus survival, RN4220 and DeltatarO strains – OD600, teichoic acid synthesis inhibitors, primary screen (AID 463173)
# Conditions: S. aureus RN4220 wild type/DeltatarO growth, OD600, 18 h, active compounds read low, screened at 18.75 µg/mL (by protocol)
row,Compound,survival
1,O=C(CCn1c(=O)c2cccn2c2cccnc21)N1CCN(c2ccc(Cl)cc2)CC1,inactive: 53%
2,Cc1cccc(OCCCCn2c(C3CC(=O)N(c4ccc(C)cc4C)C3)nc3ccccc32)c1 (stereo not given),inactive: 47%
3,Cc1ccc(Cl)cc1-n1ncc2c(N3CCC(C(N)=O)CC3)ncnc21,inactive: 88%
4,CNc1oc(/C=C/c2cc(OC)c(OC)c(OC)c2)nc1C#N,inactive: 69%
5,CS(=O)(=O)N1CCC(N2CCN(Cc3ccc(F)cc3)C(=O)C2=O)CC1,inactive: 76%
6,CCOc1ccccc1C(=O)NCC(c1ccc(N(C)C)cc1)N1CCCC1 (stereo not given),inactive: 85%
7,CC1(C)CC(C(CC(=O)O)Cc2ccccc2)CCO1 (stereo not given),inactive: 88%
8,CSc1ccc(CCNC(=O)c2ccc3c(c2)c(C)c(C)n3Cc2ccc(F)cc2)cc1,inactive: 75%
9,CNC(=S)N(Cc1ccco1)Cc1cc2ccc(C)cc2[nH]c1=O,inactive: 99%
10,CCn1c(CN2CCN(C)CC2)nc2cc(NC(=O)c3cc(OC)c(OC)c(OC)c3)ccc21,inactive: 96%
11,O=C(NCc1ccccn1)c1nn(-c2ccccc2Cl)nc1CO,inactive: 91%
12,Cc1ccccc1NC(=O)c1ccc(CNS(=O)(=O)c2ccc3c(c2)C(C)(C)C(=O)N3C)cc1,inactive: 76%
13,COc1ccccc1CNC(=O)C(Cc1ccccc1)NS(=O)(=O)c1ccc2c(c1)CCN2C(C)=O (stereo not given),inactive: 61%
14,Cc1cc(NC(=O)CSc2ncc(C(=O)Nc3ccccc3)c(=O)n2C)no1,inactive: 67%
15,CCN(CC)C(=O)C1=C(C)Nc2nc3ccccc3n2C1c1ccc(Cl)cc1 (stereo not given),inactive: 74%
16,CSc1ncc(C(=O)Nc2cccc(Cl)c2C)c(-c2ccccc2)n1,inactive: 131%
17,CCNC(=O)CC1C(=O)N(c2ccc(F)cc2)C(=O)N1Cc1ccc(C)cc1 (stereo not given),inactive: 103%
18,O=C(Nc1nnc(C2CCCC2)s1)C1CC1,inactive: 111%
19,Cc1ccc(Cl)cc1N(C)C(=O)c1cc2ccc3cccnc3c2[nH]1,inactive: 83%
20,CCCCOc1ccc(C(=O)NCCc2csc3nc(-c4ccccc4F)nn23)cc1,inactive: 84%
21,O=C(Nc1ccc2nsnc2c1)C1CC1,inactive: 89%
22,COC(=O)c1ccc(NC(=O)c2c(NCc3ccc(OC)c(OC)c3)sc3c2CCCC3)cc1,inactive: 67%
23,COC(=O)c1ccccc1NC(=O)CCCS(=O)(=O)c1nc(-c2ccccc2OC)cc(C(F)(F)F)n1,inactive: 87%

row,Compound,survival
1,CCOc1ccccc1CNC(=O)CN1C(=O)C2CCCCN2c2ccc(C(=O)N(C)C)cc21 (stereo not given),inactive: 120%
2,Cc1cc2ncn(C(=O)N3CCCCC3)c2cc1C,inactive: 101%
3,CC(=O)c1cccc(NC(=O)c2cc(-c3ccc4c(c3)OCCO4)on2)c1,active: 45%
4,CCOC(=O)CNC(=O)Cn1nc(N2CCN(c3ccccc3)CC2)ccc1=O,inactive: 71%
5,N#Cc1c(N)nc(SCC(=O)c2ccc(Cl)cc2)c(C#N)c1-c1ccco1,inactive: 76%
6,COCCn1c(CNC(=O)c2cc(OC)c(OC)c(OC)c2)nc2cccnc21,inactive: 75%
7,CCN(CC)C(=O)C1CCCN(c2ncnc3c2nc2n3CCCCC2)C1 (stereo not given),inactive: 75%
8,COc1ccc(CCCc2nnc(SCC(=O)Nc3ccc(Cl)cc3)o2)cc1,inactive: 92%
9,CCOc1ccc(OCC)c(NC(=O)c2c(C)nn(-c3ccccc3)c2-n2cccc2)c1,inactive: 56%
10,Cc1nn(C)c2c1c(C(F)(F)F)cc(=O)n2CC(=O)NC(C)(C)C,inactive: 74%
11,CCc1ccccc1NC(=O)c1ccc2[nH]c(C)c(C)c2c1,inactive: 116%
12,Cc1oc2ncnc(N3CCCCC3)c2c1C(=O)Nc1cccc(F)c1,inactive: 126%
13,COc1ccc(-c2cc(-c3ccc(F)cc3)nc3c2COc2ccccc2-3)cc1,inactive: 82%
14,CCc1ccc(CNC(=O)c2sc3ncnc(N(C)C4CCCCC4)c3c2C)cc1,inactive: 107%
15,Cc1ccc(C)c2[nH]c(=O)c(CN(CCCN3CCCC3=O)S(=O)(=O)c3ccc(F)cc3)cc12,inactive: 68%
16,CCOc1ccc(-c2nnc(SCC(=O)NCCc3ccccc3)nc2-c2ccc(OCC)c(OC)c2)cc1OC,inactive: 112%
17,CCCN(C(=O)Cn1nc(Cc2ccncc2)c2ccccc2c1=O)c1ccccc1C,inactive: 87%
18,COc1ccc(Br)cc1CNC(=O)c1ccc(-n2c(C)cc3c2CCC(C)C3)cc1 (stereo not given),inactive: 116%
19,Cc1cc(O)c(CN2CCN(c3ccc(F)cc3)CC2)c2oc(=O)cc(C)c12,inactive: 46%
20,Cc1cccc(C(=O)Nc2nnc(S(=O)(=O)N3c4ccccc4CC3C)s2)c1 (stereo not given),active: 16%
21,COCCCn1c(=N)c(C(=O)NC2CCCC2)cc2c(=O)n3cc(C)ccc3nc21,inactive: 57%
22,CCOc1ccccc1C1Nc2ccccc2-c2nnc(SCc3ccccc3)nc2O1 (stereo not given),active: 44%
23,Cc1c(C(=O)NCc2ccccc2)oc2c1-c1[nH]ncc1CC2,inactive: 64%

row,Compound,survival
1,Cc1ccc(C)c(N2CCN(C(=O)c3cc4c(=O)n(Cc5cccs5)ccc4nc3C)CC2)c1,inactive: 99%
2,Cc1ccc(S(=O)(=O)Nc2cc3c(cc2Cl)n(C)c(=O)c(=O)n3C)cc1,inactive: 83%
3,CCOc1ccc2nc(N3CCC(C(=O)Nc4c(C)cccc4C)CC3)sc2c1,inactive: 80%
4,O=C(Nc1cccc(F)c1)NC1(C(=O)NCc2ccco2)CCCCC1,inactive: 87%
5,Cc1cc(NC(=O)c2ccccc2C)no1,inactive: 100%
6,Cc1coc2cc3oc(=O)c(CC(=O)NCc4ccccc4)c(C)c3cc12,inactive: 79%
7,CC(=O)N1CCCc2cc(S(=O)(=O)N3CCCC(C(=O)Nc4ccc(C)c(C)c4)C3)ccc21 (stereo not given),inactive: 74%
8,CC(C)(C)c1ccc(S(=O)(=O)Nc2ccc(O)c(Sc3nc4ccccc4s3)c2)cc1,active: -4%
9,Cc1ccc(C(=O)Nc2ccc3oc(-c4cccnc4)nc3c2)c(Cl)c1,inactive: 88%
10,COc1cccc(-c2cnc(NCc3ccccc3Cl)n2C)c1,inactive: 51%
11,O=S(=O)(Nc1cccc(-c2ccc(N3CCOCC3)nn2)c1)c1ccc(F)cc1F,inactive: 62%
12,CN(C)c1ccc(C(C(=O)NCc2ccccc2)N(Cc2ccco2)C(=O)c2snc(C(N)=O)c2N)cc1 (stereo not given),inactive: 110%
13,O=C(Nc1nc(-c2ccc(Br)cc2)ns1)c1ccccc1F,inactive: 79%
14,CCCc1nn2c(C)c(-c3ccccc3)nc2s1,inactive: 99%
15,COC(=O)CCN(C(=O)c1c(C)oc2ncnc(N3CCOCC3)c12)c1ccccc1,active: 8%
16,Cc1cccc(N2CCN(C(=O)C3CCN(S(=O)(=O)c4ccc5c(c4)oc(=O)n5C)CC3)CC2)c1C,inactive: 91%
17,Cc1cc(C)c2oc(C(=O)Nc3ccc(S(=O)(=O)N(C)c4ccccc4)cc3)cc(=O)c2c1,inactive: 70%
18,O=c1c2c3c(sc2n(Cc2cc(=O)n4ccccc4n2)c(=O)n1-c1ccc(Cl)cc1)CCC3,inactive: 84%
19,Cc1ccc(-n2ncc(C(=O)N3CCC(c4ccccc4)C3)c2C2CCN(C(=O)OC(C)(C)C)CC2)cc1 (stereo not given),inactive: 77%
20,CCCCOc1ccc(CNC(=O)c2ccc(NC(=O)N3CCSc4ncccc43)cc2)cc1,inactive: 90%
21,CCN(c1cc(C)cc(C)c1)S(=O)(=O)c1nnc(NC(=O)c2cccc(F)c2)s1,active: 37%
22,Cc1ccc(OCc2n[nH]c(=S)n2C2CCCCC2)cc1,inactive: 99%
23,CCCOc1ccc(C2C(=O)N(C3CCCCCC3)CC(=O)N2CCCOCC)cc1OC (stereo not given),inactive: 102%

row,Compound,survival
1,Cc1ccccc1NC(=O)c1sc2nc(N3CCOCC3)c3c(c2c1N)CC(C)(C)OC3,inactive: 75%
2,CCOc1ccccc1N(C)C(=O)Cn1nc(Cc2cccnc2)c2ccccc2c1=O,inactive: 82%
3,COC(=O)CSc1nnc2n(-c3ccccc3)c(=O)c3c4c(sc3n12)COC(C(C)C)C4 (stereo not given),inactive: 123%
4,CC(C)NC(=O)Cn1c(SCC(=O)N2CCc3ccccc32)nc2ccccc21,inactive: 97%
5,CCC(=O)N1CCc2cc(S(=O)(=O)N(C)c3cccc(C)c3)ccc21,inactive: 82%
6,O=C(/C=C/c1ccccc1)N1CCN(Cc2cc(=O)n3nc(-c4ccccc4)sc3n2)CC1,inactive: 90%
7,CCN(c1ccc(C)cc1)S(=O)(=O)c1nnc(NC(=O)c2cccs2)s1,active: 14%
8,O=C(O)CCCN1C(=O)C(=O)/C(=C(/O)c2ccccc2)C1/C=C/c1ccccc1 (stereo not given),inactive: 64%
9,CCOc1ccccc1NC(=O)N1CCN(S(=O)(=O)c2ccc3c(ccn3C)c2)CC1,inactive: 76%
10,Nc1c(-c2nc(-c3ccccc3)no2)nnn1CC(=O)Nc1ccccc1,inactive: 79%
11,COc1ccccc1CNC(=O)Cn1ncc2c(C)n(Cc3ccccc3Cl)c(C)c2c1=O,inactive: 57%
12,Cc1ccc(-c2ccc(CCC(=O)O)n2-c2ccc(C(C)C)cc2)cc1,inactive: 44%
13,Cc1nnc(SCc2ccccc2)n1N,active: 61%
14,CCN(CC)CCNC(=O)c1cc2c(=O)[nH]c3ccc(C)cc3c2s1,inactive: 107%
15,Cc1ccc(NC(=O)/C(C#N)=C\c2ccc(Cl)cc2Cl)cc1C,active: 29%
16,COc1ccc2c(c1)c1c(c(=O)n(CCc3ccccc3)c(=O)n1Cc1ccc(Cl)cc1)n2C,inactive: 79%
17,Cc1ccc(-c2nc3c(C)cccn3c2Nc2ccccc2C)s1,active: 0%
18,COc1ccc(NC(=O)C(C)Sc2nc(N)cc(=O)[nH]2)cc1 (stereo not given),inactive: 97%
19,Cc1ccc(F)cc1NC(=O)Cn1c(=O)nc(-c2ccccc2F)c2cc(Cl)ccc21,inactive: 86%
20,Cc1cc(=O)[nH]c(SCSc2nc(C)cc(=O)[nH]2)n1,inactive: 102%
21,COc1ccc(C2=C(C)C(=O)N(Cc3ccc(C(=O)Nc4cccc(F)c4)cc3)S2(=O)=O)cc1,inactive: 89%
